# Laboratory results published in the supplement of paper PMC8728848.
# Some of the results follow.
# B1: DC-Sign (Homo sapiens), Q9NNX6 (protein)
# chain: MSDSKEPRLQQLGLLEEEQLRGLGFRQTRGYKSLAGCLGHGPLVLQLLSFTLLAGLLVQVSKVPSSISQEQSRQDAIYQNLTQLKAAVGELSEKSKLQEIYQELTQLKAAVGELPEKSKLQEIYQELTRLKAAVGELPEKSKLQEIYQELTWLKAAVGELPEKSKMQEIYQELTRLKAAVGELPEKSKQQEIYQELTRLKAAVGELPEKSKQQEIYQELTRLKAAVGELPEKSKQQEIYQELTQLKAAVERLCHPCPWEWTFFQGNCYFMSNSQRNWHDSITACKEVGAQLVVIKSAEEQNFLQLQSSRSNRFTWMGLSDLNQEGTWQWVDGSPLLPSFKQYWNRGEPNNVGEEDCAEFSGNGWNDDKCNLAKFWICKKSAASCSRDEEQFLSPAPATPNPPPA
# Key:
# Experiment in all cases: glycan array binding signal (z-score within array); higher = stronger binding
# Settings in all cases: glycan notation: IUPAC condensed, linker removed
# [1] = target: Neu5Ac(a2-6)Gal(b1-4)GlcNAc(b1-2)Man(a1-3)[GlcNAc(b1-4)][Neu5Ac(a2-6)Gal(b1-4)GlcNAc(b1-2)Man(a1-6)]Man(b1-4)GlcNAc(b1-4)GlcNAc
# Summary of the method: (§1)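 Arrays were curated from the Consortium for Functional Glycomics database, 3228 in total, and kept only where the protein sequence was available. Binding is expressed as a within-array Z-score. This score was averaged across arrays of the same protein sequence at different concentrations or buffers and across linkers, and negative values can be read as non-binding.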
# [2] = target: Neu5Ac(a2-6)Gal(b1-4)GlcNAc(b1-2)Man(a1-3)[Man(a1-6)]Man(b1-4)GlcNAc(b1-4)GlcNAc
# Summary of the method: as §1
# [3] = target: Neu5Ac(a2-6)Gal(b1-4)GlcNAc(b1-2)Man(a1-3)[Neu5Ac(a2-3)Gal(b1-4)GlcNAc(b1-2)Man(a1-6)]Man(b1-4)GlcNAc(b1-4)GlcNAc
# Summary of the method: as §1
# [4] = target: Neu5Ac(a2-6)Gal(b1-4)GlcNAc(b1-2)Man(a1-3)[Neu5Ac(a2-6)Gal(b1-4)GlcNAc(b1-2)Man(a1-6)]Man(b1-4)GlcNAc(b1-4)GlcNAc
# Summary of the method: as §1
# [5] = target: Neu5Ac(a2-6)Gal(b1-4)GlcNAc(b1-2)Man(a1-3)[Neu5Ac(a2-6)Gal(b1-4)GlcNAc(b1-2)Man(a1-6)]Man(b1-4)GlcNAc(b1-4)[Fuc(a1-6)]GlcNAc
# Summary of the method: as §1
# [6] = target: Neu5Ac(a2-6)Gal(b1-4)GlcNAc(b1-2)Man(a1-6)Man(b1-4)GlcNAc(b1-4)GlcNAc
# Summary of the method: as §1
# [7] = target: Neu5Ac(a2-6)Gal(b1-4)GlcNAc(b1-2)Man(a1-6)[Gal(b1-4)GlcNAc(b1-2)Man(a1-3)]Man(b1-4)GlcNAc(b1-4)GlcNAc
# Summary of the method: as §1
# [8] = target: Neu5Ac(a2-6)Gal(b1-4)GlcNAc(b1-2)Man(a1-6)[GlcNAc(b1-2)Man(a1-3)]Man(b1-4)GlcNAc(b1-4)GlcNAc
# Summary of the method: as §1
# [9] = target: Neu5Ac(a2-6)Gal(b1-4)GlcNAc(b1-2)Man(a1-6)[Man(a1-3)]Man(b1-4)GlcNAc(b1-4)GlcNAc
# Summary of the method: as §1
# [10] = target: Neu5Ac(a2-6)Gal(b1-4)GlcNAc(b1-2)[Neu5Ac(a2-6)Gal(b1-4)GlcNAc(b1-4)]Man(a1-3)[GlcNAc(b1-4)][Neu5Ac(a2-6)Gal(b1-4)GlcNAc(b1-2)[Neu5Ac(a2-6)Gal(b1-4)GlcNAc(b1-6)]Man(a1-6)]Man(b1-4)GlcNAc(b1-4)GlcNAc
# Summary of the method: as §1
# [11] = target: Neu5Ac(a2-6)Gal(b1-4)GlcNAc(b1-2)[Neu5Ac(a2-6)Gal(b1-4)GlcNAc(b1-4)]Man(a1-3)[GlcNAc(b1-4)][Neu5Ac(a2-6)Gal(b1-4)GlcNAc(b1-4)Man(a1-6)]Man(b1-4)GlcNAc(b1-4)GlcNAc
# Summary of the method: as §1
# [12] = target: Neu5Ac(a2-6)Gal(b1-4)GlcNAc(b1-2)[Neu5Ac(a2-6)Gal(b1-4)GlcNAc(b1-6)]Man(a1-6)[Neu5Ac(a2-6)Gal(b1-4)GlcNAc(b1-2)Man(a1-3)][GlcNAc(b1-4)]Man(b1-4)GlcNAc(b1-4)GlcNAc
# Summary of the method: as §1
# [13] = target: Neu5Ac(a2-6)Gal(b1-4)GlcNAc(b1-3)Gal(b1-3)GlcNAc
# Summary of the method: as §1
# [14] = target: Neu5Ac(a2-6)Gal(b1-4)GlcNAc(b1-3)Gal(b1-4)GlcNAc
# Summary of the method: as §1
# [15] = target: Neu5Ac(a2-6)Gal(b1-4)GlcNAc(b1-3)Gal(b1-4)GlcNAc(b1-2)Man(a1-3)[Neu5Ac(a2-6)Gal(b1-4)GlcNAc(b1-3)Gal(b1-4)GlcNAc(b1-2)Man(a1-6)]GalNAc
# Summary of the method: as §1
# [16] = target: Neu5Ac(a2-6)Gal(b1-4)GlcNAc(b1-3)Gal(b1-4)GlcNAc(b1-3)Gal(b1-4)GlcNAc
# Summary of the method: as §1
# [17] = target: Neu5Ac(a2-6)Gal(b1-4)GlcNAc(b1-3)Gal(b1-4)GlcNAc(b1-3)Gal(b1-4)GlcNAc(b1-2)Man(a1-3)[Neu5Ac(a2-6)Gal(b1-4)GlcNAc(b1-3)Gal(b1-4)GlcNAc(b1-3)Gal(b1-4)GlcNAc(b1-2)Man(a1-6)]GalNAc
# Summary of the method: as §1
# [18] = target: Neu5Ac(a2-6)Gal(b1-4)GlcNAc(b1-3)Gal(b1-4)GlcNAc(b1-3)GalNAc
# Summary of the method: as §1
# [19] = target: Neu5Ac(a2-6)Gal(b1-4)GlcNAc(b1-3)Gal(b1-4)GlcNAc(b1-3)[Neu5Ac(a2-6)Gal(b1-4)GlcNAc(b1-3)Gal(b1-4)GlcNAc(b1-6)]GalNAc
# Summary of the method: as §1
# [20] = target: Neu5Ac(a2-6)Gal(b1-4)GlcNAc(b1-3)Gal(b1-4)GlcNAc(b1-6)[Gal(b1-3)]GalNAc
# Summary of the method: as §1
# [21] = target: Neu5Ac(a2-6)Gal(b1-4)GlcNAc(b1-3)Gal(b1-4)[Fuc(a1-3)]GlcNAc(b1-3)Gal(b1-4)[Fuc(a1-3)]GlcNAc
# Summary of the method: as §1
# [22] = target: Neu5Ac(a2-6)Gal(b1-4)GlcNAc(b1-3)GalNAc
# Summary of the method: as §1
# [23] = target: Neu5Ac(a2-6)Gal(b1-4)GlcNAc(b1-3)[Neu5Ac(a2-6)Gal(b1-4)GlcNAc(b1-6)]GalNAc
# Summary of the method: as §1
# [24] = target: Neu5Ac(a2-6)Gal(b1-4)GlcNAc(b1-6)GalNAc
# Summary of the method: as §1
# [25] = target: Neu5Ac(a2-6)Gal(b1-4)GlcNAc(b1-6)[Gal(b1-3)GlcNAc(b1-3)]Gal(b1-4)Glc
# Summary of the method: as §1
# [26] = target: Neu5Ac(a2-6)Gal(b1-4)GlcNAc(b1-6)[Gal(b1-3)]GalNAc
# Summary of the method: as §1
# [27] = target: Neu5Ac(a2-6)Gal(b1-4)GlcNAc6S
# Summary of the method: as §1
# [28] = target: Neu5Ac(a2-6)GalNAc
# Summary of the method: as §1
# [29] = target: Neu5Ac(a2-6)GalNAc(b1-4)GlcNAc
# Summary of the method: as §1
# [30] = target: Neu5Ac(a2-6)GalNAc(b1-4)GlcNAc6S
# Summary of the method: as §1
# [31] = target: Neu5Ac(a2-6)GlcNAc(b1-4)GlcNAc
# Summary of the method: as §1
binder,measurement,setting,value
B1,glycan array binding signal (z-score),[1],-0.127
same,glycan array binding signal (z-score),[2],-0.184
same,glycan array binding signal (z-score),[3],-0.097
same,glycan array binding signal (z-score),[4],-0.146
same,glycan array binding signal (z-score),[5],-0.121
same,glycan array binding signal (z-score),[6],-0.195
same,glycan array binding signal (z-score),[7],-0.176
same,glycan array binding signal (z-score),[8],-0.106
same,glycan array binding signal (z-score),[9],-0.192
same,glycan array binding signal (z-score),[10],-0.156
same,glycan array binding signal (z-score),[11],-0.183
same,glycan array binding signal (z-score),[12],-0.167
same,glycan array binding signal (z-score),[13],-0.161
same,glycan array binding signal (z-score),[14],-0.172
same,glycan array binding signal (z-score),[15],0.12
same,glycan array binding signal (z-score),[16],-0.183
same,glycan array binding signal (z-score),[17],-0.056
same,glycan array binding signal (z-score),[18],-0.178
same,glycan array binding signal (z-score),[19],-0.162
same,glycan array binding signal (z-score),[20],-0.112
same,glycan array binding signal (z-score),[21],-0.111
same,glycan array binding signal (z-score),[22],-0.123
same,glycan array binding signal (z-score),[23],-0.123
same,glycan array binding signal (z-score),[24],-0.006
same,glycan array binding signal (z-score),[25],-0.16
same,glycan array binding signal (z-score),[26],-0.146
same,glycan array binding signal (z-score),[27],-0.137
same,glycan array binding signal (z-score),[28],-0.151
same,glycan array binding signal (z-score),[29],-0.189
same,glycan array binding signal (z-score),[30],-0.154
same,glycan array binding signal (z-score),[31],-0.152
